# Some of the results follow. The energies were worked out here from pooled read counts, against the library average; single values are noisy.
# Biological target: T1, Pho4 (S. cerevisiae) (UniProt P07270)
# T1 sequence: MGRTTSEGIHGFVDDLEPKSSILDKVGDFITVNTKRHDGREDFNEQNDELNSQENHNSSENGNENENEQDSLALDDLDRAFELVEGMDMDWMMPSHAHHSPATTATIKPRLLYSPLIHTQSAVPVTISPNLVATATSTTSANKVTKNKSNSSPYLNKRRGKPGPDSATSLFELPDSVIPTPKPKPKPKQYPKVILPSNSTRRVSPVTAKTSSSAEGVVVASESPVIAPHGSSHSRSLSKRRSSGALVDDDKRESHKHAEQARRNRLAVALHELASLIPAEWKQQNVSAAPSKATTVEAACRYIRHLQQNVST
# Assay: relative binding free energy (BET-seq); higher = weaker binding
# Details: reference: library average
row,Sequence,relative binding free energy [kcal/mol]
1,TCCGTCACGTGTATGG,0.11
2,TAAATCACGTGTAGTG,0.04
3,TGGTACACGTGACGTG,0.09
4,AAGGACACGTGTGGGT,0.17
5,TAGCACACGTGGATGT,0.16
6,TGTCTCACGTGTGTCT,0.39
7,GAGTTCACGTGTATGG,0.27
8,ACGTGCACGTGTTAGG,-0.19
9,CGGCACACGTGGGTGT,-0.05
10,TCGTACACGTGGTAAG,0.12
11,GAGTGCACGTGTTGCG,-0.04
12,TAAGTCACGTGACAGG,0.31
13,GGTATCACGTGATTGC,0.24
14,TGGCGCACGTGGTTAG,-0.14
15,AGAATCACGTGGTCGG,0.2
16,AGTTGCACGTGGTCAT,-0.12
17,CTCGGCACGTGTTTTT,-0.1
18,TGTAGCACGTGTTCAA,-0.09
19,AGGGCCACGTGGAGAG,-0.09
20,TATGTCACGTGTAGTC,0.05
21,GGGTGCACGTGTGTTT,0.08
22,GTAGTCACGTGGTTAT,0.17
23,GGCTTCACGTGGGAGT,0.26
24,GGCGGCACGTGAAGGT,0.22
25,TGGTCCACGTGGGTCG,-0.03
26,GGAGGCACGTGCTGGG,-0.13

row,Sequence,relative binding free energy [kcal/mol]
1,TTTGGCACGTGATTAA,0.02
2,GTATACACGTGAGGCT,0.28
3,AGACACACGTGTAGTG,0.18
4,GGTAACACGTGTTGGA,0.2
5,GTGTGCACGTGTGTGC,-0.02
6,CGGCGCACGTGTGCGG,-0.11
7,GATGGCACGTGTAATT,0.09
8,ATGGTCACGTGTTTTA,0.13
9,GGTACCACGTGTGGGC,0.14
10,GTGTTCACGTGGGTTG,0.11
11,CGGGGCACGTGGAGCA,-0.16
12,AGGGTCACGTGGTTCG,0.16
13,CGTTGCACGTGTGATG,0.03
14,GTTTTCACGTGTTGCG,0.33
15,GGGTTCACGTGGAGCG,0.3
16,GATTTCACGTGAAGTT,0.46
17,GGTCACACGTGTGGTT,0.16
18,TCATACACGTGAGTGG,0.21
19,TGTTACACGTGAATAT,0.23
20,TGAAACACGTGTTGTG,-0.06
21,TGACGCACGTGTGCTG,-0.05
22,TTTAGCACGTGTGGCT,-0.06
23,GTGCACACGTGGTATG,-0.11
24,ATTGTCACGTGAAATG,0.3
25,AAGTTCACGTGGGTAC,0.21
26,TGTGGCACGTGTCATA,-0.07

row,Sequence,relative binding free energy [kcal/mol]
1,ATATTCACGTGATGTT,0.27
2,TTGTCCACGTGTGAAT,0.23
3,AATTACACGTGAGGGG,0.21
4,TTTGACACGTGCGGGG,-0.02
5,TAGAGCACGTGGGGGG,-0.19
6,GAGGGCACGTGAGTCT,0.19
7,CGTTCCACGTGGTTTA,0.04
8,TATAACACGTGTCTGG,-0.1
9,TTCAACACGTGGTGTT,-0.16
10,TGCTTCACGTGGTAAG,0.08
11,TTATTCACGTGTTGCA,0.03
12,GTCGGCACGTGGAGTA,0
13,GGAGGCACGTGGGTGT,-0.22
14,GGGTGCACGTGCTTGC,0.03
15,GATTCCACGTGGGTGC,0.21
16,TGGATCACGTGTTCGA,0.2
17,CGGGACACGTGGTGGA,-0.04
18,GAGGTCACGTGTTTAC,0.32
19,CAGGCCACGTGGGTAG,-0.14
20,TGATTCACGTGCTGTG,0.28
21,CATATCACGTGATTGT,0.32
22,GGAGGCACGTGCTGGT,-0.19
23,GTGCTCACGTGTTTTT,0.32
24,GTTCTCACGTGGTGAA,0.33
25,TTATGCACGTGCGGCG,-0.09
26,ATGATCACGTGGTGCT,-0.09

row,Sequence,relative binding free energy [kcal/mol]
1,TTATGCACGTGACTTT,0.2
2,TGAGTCACGTGAAAGT,0.19
3,TTGGACACGTGAGTTC,0.28
4,CATTGCACGTGGATGT,0
5,TTGCCCACGTGTGTGT,-0.12
6,TAGGACACGTGACTGT,0.17
7,ATTTACACGTGGATCG,0.15
8,CGGGTCACGTGTATAA,0.25
9,GTCTTCACGTGTATTA,0.33
10,ATTGGCACGTGCGGTC,-0.03
11,AGGGGCACGTGGTGGG,-0.16
12,GCCTGCACGTGGGAGG,-0.07
13,GGGGACACGTGAGGCT,0.16
14,AAGGACACGTGCTTGG,0.06
15,CGGTGCACGTGTGGTC,0.06
16,GTGTTCACGTGCTGAA,0.18
17,TGCTTCACGTGGGACG,0.22
18,ATGTTCACGTGATGTT,0.35
19,GGGGCCACGTGTTATT,0.05
20,GGATACACGTGTGTAT,0.09
21,ATGTCCACGTGGTTTT,0.14
22,TCGGTCACGTGTTATG,0.07
23,TCATTCACGTGAGCGG,0.54
24,GAGGGCACGTGGTTCA,-0.08
25,TTCATCACGTGATATG,0.17
26,GTGTGCACGTGGTATT,-0.05

row,Sequence,relative binding free energy [kcal/mol]
1,AAGGTCACGTGTAATT,0.22
2,AGGAGCACGTGGGTCT,-0.21
3,TGAGGCACGTGTAGAG,0
4,TGAATCACGTGGGTAA,0.11
5,ATGTGCACGTGCTTTC,0.07
6,TGCTCCACGTGGTTTT,0.09
7,AGTGGCACGTGGGTTG,-0.29
8,TAGATCACGTGTTCTG,0.15
9,TGTCACACGTGATAGG,0.02
10,TATTTCACGTGATAAT,0.26
11,GTTGACACGTGACGGG,0.16
12,TGTGGCACGTGGATGC,-0.05
13,GATTTCACGTGTTTCT,0.29
14,GTATACACGTGTTTAT,-0.02
15,GGGTACACGTGGTCAG,0.01
16,GTTGCCACGTGATGTG,0.01
17,TTCCTCACGTGTGGTG,0.4
18,GTTTACACGTGGGTAA,0.06
19,TAATGCACGTGGGGGC,-0.26
20,AGGTCCACGTGTGTAG,0.11
21,GGCGGCACGTGAGACG,0.23
22,TTTGGCACGTGCGTGC,0.02
23,CGTGTCACGTGGGTTC,-0.04
24,TTGTCCACGTGCTGGG,-0.02
25,TTACACACGTGTGTTG,0.04
26,TGAGACACGTGGCTGT,-0.06

row,Sequence,relative binding free energy [kcal/mol]
1,CATAGCACGTGTGGAG,0.08
2,GTGAGCACGTGTGCTA,-0.09
3,ATTGCCACGTGCGTTT,-0.18
4,GGTGTCACGTGTGTTT,0.28
5,GTTATCACGTGTGTAG,0.14
6,AAGTGCACGTGTAGAA,0.01
7,TGGTTCACGTGTCTAG,0.31
8,TTGTACACGTGGTGTT,0.1
9,GGGCTCACGTGGTAGT,0.33
10,TTGATCACGTGAGATA,0.3
11,GGGGCCACGTGGTGTA,-0.21
12,GGTAACACGTGGGCGA,-0.08
13,TTATCCACGTGATGTT,0.09
14,TGCAGCACGTGTGGTA,-0.18
15,GGCGTCACGTGGTTTG,0.18
16,GGTGTCACGTGCTCTT,0.1
17,TTTGACACGTGCTATG,-0.17
18,CTTGCCACGTGTGGGC,0.04
19,GTGGCCACGTGTTGGA,0.04
20,GTTTTCACGTGAAGGT,0.48
21,GTGGGCACGTGTATAA,0.07
22,TTTTACACGTGAAGTG,0.4
23,GTCTGCACGTGTAATG,0.16
24,TGTGCCACGTGTGGGC,-0.09
25,CGTGACACGTGTTGGT,-0.03
26,GATTTCACGTGGCTAT,0.44

row,Sequence,relative binding free energy [kcal/mol]
1,GGATGCACGTGGTATG,-0.07
2,GGGATCACGTGTAGAG,0.25
3,TGCGACACGTGTTAGG,0.08
4,TAGGGCACGTGTTAGT,-0.07
5,ACGGGCACGTGAAGTG,0.18
6,GGGGACACGTGGCATT,-0.12
7,TGAGACACGTGTATAG,-0.05
8,ATGTGCACGTGAGGTA,0.2
9,TTTAACACGTGGGTTC,-0.12
10,GTGTGCACGTGCTATG,-0.13
11,TTTGGCACGTGAACTT,-0.01
12,GGCTTCACGTGGGTAC,0.34
13,CTAGTCACGTGGTGGT,0
14,TTAGGCACGTGTAATT,0.02
15,TAGGTCACGTGGTGAG,0.11
16,TTTTTCACGTGTCTTA,0.32
17,TCATGCACGTGTAAGT,-0.04
18,CGGGGCACGTGGGAAG,-0.22
19,CTAGACACGTGGGTGG,-0.23
20,TGGTACACGTGTTGTG,0.09
21,GGGTTCACGTGGAATA,0.33
22,GGCTTCACGTGTATGT,0.29
23,TTTTGCACGTGTAGTT,0.14
24,CTATGCACGTGTCGGT,-0.04
25,GGGCGCACGTGAGAGG,0.09
26,GGTTGCACGTGTGGTG,0.06

row,Sequence,relative binding free energy [kcal/mol]
1,GCAGACACGTGTTGTT,0.04
2,GTTATCACGTGTATGA,0.12
3,TTCTTCACGTGGAGGA,0.29
4,TGGATCACGTGAGGGT,0.28
5,CGGTCCACGTGGGGGC,-0.15
6,TGTGTCACGTGAAGAC,0.24
7,GATATCACGTGGTTTA,0.18
8,ACTGTCACGTGTTGTA,0.06
9,TAATTCACGTGAGGTA,0.35
10,GGTTCCACGTGAGTTA,0.36
11,TGACGCACGTGAGTTT,0.14
12,GCCAGCACGTGGGTGG,-0.13
13,AGCTACACGTGGGTTT,-0.02
14,GTGTGCACGTGGGTGA,-0.06
15,TCTTACACGTGTAGGT,0.03
16,ATTGTCACGTGATTTG,0.17
17,TTATTCACGTGGGTTT,0.2
18,ATTGACACGTGGAGTA,-0.19
19,ATGTGCACGTGACAGG,-0.02
20,TGGCACACGTGTTGCG,0.01
21,GTGTTCACGTGGAGAT,0.26
22,AATTTCACGTGTAGTG,0.24
23,TGGGGCACGTGTGCAG,-0.11
24,AGGGTCACGTGTGTAG,0.11
25,TTGATCACGTGCAGTT,0.2
26,ATATACACGTGTGAGT,-0.03

row,Sequence,relative binding free energy [kcal/mol]
1,GTGTGCACGTGCGGTA,-0.16
2,GGTGCCACGTGCTGGG,-0.09
3,AACTTCACGTGTGGGT,0.29
4,TTTCGCACGTGGTTGC,-0.16
5,TCTTTCACGTGTTGTC,0.2
6,TCTTTCACGTGTATGA,0.21
7,ATTATCACGTGAGTAT,0.34
8,TTGTACACGTGTAGGT,0.22
9,TGCGCCACGTGAAGTT,0.26
10,GCGTACACGTGGTTTA,0.14
11,TTGATCACGTGATCGG,0.17
12,CAGGTCACGTGTTAAA,0.23
13,GGTTGCACGTGGGAGA,0.05
14,AATTTCACGTGACGGT,0.31
15,TAGGGCACGTGTTTTC,-0.02
16,TGGTCCACGTGTGGGT,0.01
17,CGGATCACGTGTGAGT,0.32
18,TTTAGCACGTGTAGTC,0.03
19,TCGGACACGTGTTTAG,0.01
20,GTTGGCACGTGGTAGT,0.01
21,TCAGTCACGTGTGGAT,0.17
22,GTTTGCACGTGAGGCT,0.29

# Source: the BET-seq Pho4 binding data (Le et al. 2018)
